{
  "source": "the supplement of paper PMC10126150",
  "note": "Values marked as one replicate rest on one cluster of the flow cell; about a third of the high ones do not repeat.",
  "data": [
    {"tested_on": "ATP", "assay": "switch fluorescence ratio, 500 uM ATP over buffer (Cy3 cluster intensity, sum of 5 cycles each) (fold (ratio)); higher = stronger signal-on switching upon ATP binding; sequences stand for … in TCGTCGGCAGCGTCAGATGTGTATAAGAGACAGTTTTTTTTTTTTTTTTTTTTTTTTT…TC", "settings": "aptamer strand: ATP DNA aptamer (quencher-CACCTGGGGGAGTATTGCGGAGGAAGG + anchor), 100 nM annealed; ATP concentration: 500 uM; one replicate", "method_in_brief": "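Exposure to 500 uM ATP lasted 15 min at 22 °C before imaging, and a selection-buffer image was taken beforehand, for Cy3-labelled switching-strand clusters on a modified Illumina MiSeq flow-cell annealed to 100 nM quencher-labelled ATP aptamer. Five buffer/ATP cycles were run with NaOH stripping and re-annealing between them. The fluorescence ratio per cluster is summed target-cycle over summed buffer-cycle Cy3 intensity, averaged per switch-domain sequence. Clusters outside 100-1000 RFU were excluded.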", "values": [
      {"sequence": "ATTTGAGGCT", "switch fluorescence ratio": 1.06},
      {"sequence": "ATTTGCATAA", "switch fluorescence ratio": 0.995},
      {"sequence": "ATTTGTACAT", "switch fluorescence ratio": 1.02},
      {"sequence": "ATTTTAAGGA", "switch fluorescence ratio": 1.05},
      {"sequence": "ATTTTATGGC", "switch fluorescence ratio": 0.986},
      {"sequence": "ATTTTCGTGC", "switch fluorescence ratio": 1.01},
      {"sequence": "ATTTTCTAAG", "switch fluorescence ratio": 1.02},
      {"sequence": "ATTTTGAATT", "switch fluorescence ratio": 1.04},
      {"sequence": "ATTTTGAGCT", "switch fluorescence ratio": 1.01},
      {"sequence": "ATTTTGGCCA", "switch fluorescence ratio": 0.999},
      {"sequence": "ATTTTTCCAT", "switch fluorescence ratio": 1.04},
      {"sequence": "ATTTTTGCTG", "switch fluorescence ratio": 1.06},
      {"sequence": "ATTTTTTGT", "switch fluorescence ratio": 0.972},
      {"sequence": "CAAAAATTAC", "switch fluorescence ratio": 1.9},
      {"sequence": "CAAAACCCGT", "switch fluorescence ratio": 1.22},
      {"sequence": "CAAAAGCCGG", "switch fluorescence ratio": 0.999},
      {"sequence": "CAAAATATTG", "switch fluorescence ratio": 0.972},
      {"sequence": "CAAAATGAGG", "switch fluorescence ratio": 0.989},
      {"sequence": "CAAACCGTTT", "switch fluorescence ratio": 1.67},
      {"sequence": "CAAACGAATT", "switch fluorescence ratio": 0.987},
      {"sequence": "CAAACGGTGC", "switch fluorescence ratio": 1.32},
      {"sequence": "CAAACGTACT", "switch fluorescence ratio": 1.76},
      {"sequence": "CAAACGTTAA", "switch fluorescence ratio": 1.28},
      {"sequence": "CAAACTACGG", "switch fluorescence ratio": 1.08},
      {"sequence": "CAAACTATTG", "switch fluorescence ratio": 0.978},
      {"sequence": "CAAACTCTTT", "switch fluorescence ratio": 0.993},
      {"sequence": "CAAACTTCTG", "switch fluorescence ratio": 1.05},
      {"sequence": "CAAAGACTAT", "switch fluorescence ratio": 1.02},
      {"sequence": "CAAAGAGGCT", "switch fluorescence ratio": 1.04},
      {"sequence": "CAAAGCCCTG", "switch fluorescence ratio": 0.972},
      {"sequence": "CAAAGGCATC", "switch fluorescence ratio": 0.989},
      {"sequence": "CAAAGGCCGT", "switch fluorescence ratio": 0.908},
      {"sequence": "CAAAGGGGA", "switch fluorescence ratio": 1.15},
      {"sequence": "CAAATCGAAT", "switch fluorescence ratio": 0.99},
      {"sequence": "CAAATCGTGA", "switch fluorescence ratio": 1.01},
      {"sequence": "CAAATGCGTA", "switch fluorescence ratio": 1.02},
      {"sequence": "CAAATGGCAC", "switch fluorescence ratio": 1.05},
      {"sequence": "CAAATGGCTC", "switch fluorescence ratio": 1.02},
      {"sequence": "CAAATGTGTG", "switch fluorescence ratio": 1.03},
      {"sequence": "CAAATTGTAA", "switch fluorescence ratio": 1.01},
      {"sequence": "CAAATTGTGA", "switch fluorescence ratio": 0.946},
      {"sequence": "CAAATTTAGG", "switch fluorescence ratio": 0.996},
      {"sequence": "CAACAATTTA", "switch fluorescence ratio": 1.03},
      {"sequence": "CAACACCGGG", "switch fluorescence ratio": 1.18},
      {"sequence": "CAACAGATGC", "switch fluorescence ratio": 1.08},
      {"sequence": "CAACAGGCAG", "switch fluorescence ratio": 1.01},
      {"sequence": "CAACAGGCTG", "switch fluorescence ratio": 1.04},
      {"sequence": "CAACAGGGGA", "switch fluorescence ratio": 1.4},
      {"sequence": "CAACCAAAGG", "switch fluorescence ratio": 0.998},
      {"sequence": "CAACCGGAGG", "switch fluorescence ratio": 0.984},
      {"sequence": "CAACCGGCAC", "switch fluorescence ratio": 1.79},
      {"sequence": "CAACCGTCCT", "switch fluorescence ratio": 1.26},
      {"sequence": "CAACCTATCG", "switch fluorescence ratio": 1.05},
      {"sequence": "CAACCTGGG", "switch fluorescence ratio": 1.01},
      {"sequence": "CAACCTTTTA", "switch fluorescence ratio": 1.02},
      {"sequence": "CAACGAAGAC", "switch fluorescence ratio": 1.85},
      {"sequence": "CAACGACGGG", "switch fluorescence ratio": 1.06},
      {"sequence": "CAACGCACTA", "switch fluorescence ratio": 1.95},
      {"sequence": "CAACGCTAAA", "switch fluorescence ratio": 1.58},
      {"sequence": "CAACGTTGGA", "switch fluorescence ratio": 0.998},
      {"sequence": "CAACTCAGGC", "switch fluorescence ratio": 1},
      {"sequence": "CAACTGAATT", "switch fluorescence ratio": 0.985},
      {"sequence": "CAACTGTCAC", "switch fluorescence ratio": 1.22},
      {"sequence": "CAACTGTTAT", "switch fluorescence ratio": 1.09},
      {"sequence": "CAACTGTTCC", "switch fluorescence ratio": 1.2},
      {"sequence": "CAACTTAGTG", "switch fluorescence ratio": 1},
      {"sequence": "CAACTTCATG", "switch fluorescence ratio": 0.982},
      {"sequence": "CAACTTCATT", "switch fluorescence ratio": 0.962},
      {"sequence": "CAACTTCTCA", "switch fluorescence ratio": 1.01},
      {"sequence": "CAAGAAACGA", "switch fluorescence ratio": 0.984},
      {"sequence": "CAAGAAATCA", "switch fluorescence ratio": 0.955},
      {"sequence": "CAAGAAGAGG", "switch fluorescence ratio": 0.991},
      {"sequence": "CAAGAAGCGG", "switch fluorescence ratio": 1.06},
      {"sequence": "CAAGAATCCC", "switch fluorescence ratio": 1.11},
      {"sequence": "CAAGAGACAG", "switch fluorescence ratio": 0.998},
      {"sequence": "CAAGAGAGGT", "switch fluorescence ratio": 1.02},
      {"sequence": "CAAGAGTAAG", "switch fluorescence ratio": 0.999},
      {"sequence": "CAAGCCAGCG", "switch fluorescence ratio": 1.03},
      {"sequence": "CAAGCCTCTG", "switch fluorescence ratio": 1.01},
      {"sequence": "CAAGCCTTAA", "switch fluorescence ratio": 1.04},
      {"sequence": "CAAGCGAATA", "switch fluorescence ratio": 1.19},
      {"sequence": "CAAGGATCGG", "switch fluorescence ratio": 0.983},
      {"sequence": "CAAGGATTCA", "switch fluorescence ratio": 1.03},
      {"sequence": "CAAGGCCGCG", "switch fluorescence ratio": 1.05},
      {"sequence": "CAAGGCCGTG", "switch fluorescence ratio": 0.954},
      {"sequence": "CAAGGCGGAG", "switch fluorescence ratio": 0.967},
      {"sequence": "CAAGGGGCGA", "switch fluorescence ratio": 1.03},
      {"sequence": "CAAGGTAGAG", "switch fluorescence ratio": 0.945},
      {"sequence": "CAAGGTCGTG", "switch fluorescence ratio": 0.974},
      {"sequence": "CAAGGTGAAG", "switch fluorescence ratio": 0.983},
      {"sequence": "CAAGTCCTAA", "switch fluorescence ratio": 0.986},
      {"sequence": "CAAGTCGTAG", "switch fluorescence ratio": 0.977},
      {"sequence": "CAAGTGTAAC", "switch fluorescence ratio": 1.01},
      {"sequence": "CAAGTGTCAA", "switch fluorescence ratio": 1.03},
      {"sequence": "CAAGTTCCGC", "switch fluorescence ratio": 1.12},
      {"sequence": "CAAGTTTACA", "switch fluorescence ratio": 1.04},
      {"sequence": "CAAGTTTTGA", "switch fluorescence ratio": 0.984},
      {"sequence": "CAATAATTCG", "switch fluorescence ratio": 1},
      {"sequence": "CAATACAGGA", "switch fluorescence ratio": 1.05},
      {"sequence": "CAATACCTGC", "switch fluorescence ratio": 1.11},
      {"sequence": "CAATACGGCA", "switch fluorescence ratio": 1.22}
    ]}
  ]
}
